{"source": "PubChem BioAssay (Tox21)", "key": {"[1]": {"test": "Caspase-3/7 induction in HepG2 cells by small molecules, qHTS cell viability counter screen (AID 1346981); further: nearly all actives have a fitted effect of over 30% in size", "outline": "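Fluorescence read-out of live-cell protease activity (CellTiter-Fluor) after 1 hr with reagent. This was measured in the same wells as the caspase-3/7 luminescence, on HepG2 cells exposed to DMSO-dissolved compounds for 16 hr at 37 C.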"}, "[2]": {"molecular_target": "Cytochrome P450 2D6 (Homo sapiens) (UniProt P10635)", "sequence (P10635 whole entry, looked up)": "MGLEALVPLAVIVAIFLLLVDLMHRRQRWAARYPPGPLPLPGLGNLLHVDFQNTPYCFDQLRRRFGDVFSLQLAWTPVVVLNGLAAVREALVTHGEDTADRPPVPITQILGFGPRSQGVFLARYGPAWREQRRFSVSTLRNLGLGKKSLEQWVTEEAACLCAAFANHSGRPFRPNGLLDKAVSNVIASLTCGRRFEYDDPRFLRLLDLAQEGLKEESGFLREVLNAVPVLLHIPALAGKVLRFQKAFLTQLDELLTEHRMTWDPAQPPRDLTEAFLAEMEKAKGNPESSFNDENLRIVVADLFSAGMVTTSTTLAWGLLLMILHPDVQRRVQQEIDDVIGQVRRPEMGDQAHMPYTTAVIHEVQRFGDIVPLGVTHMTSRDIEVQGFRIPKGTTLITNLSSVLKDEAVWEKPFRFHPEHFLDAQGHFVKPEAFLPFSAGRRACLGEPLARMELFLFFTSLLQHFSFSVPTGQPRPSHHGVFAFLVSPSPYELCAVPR", "test": "Cytochrome P450 Family 2 Subfamily D Member 6 (CYP2D6) small molecule antagonists: luciferase reporter qHTS assay (AID 1671196); further: nearly all actives have a fitted effect of over 50% in size", "outline": "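Luminogenic proluciferin substrate, CYP2D6 enzyme; 10 min RT preincubation with compound, NADPH regeneration system added, 1 h RT. Stop/detection reagent, 20 min RT, luminescence read (RLU). Signal proportional to CYP activity.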"}, "[3]": {"molecular_target": "Cytochrome P450 2C9 (Homo sapiens) (UniProt P11712)", "sequence (P11712 whole entry, looked up)": "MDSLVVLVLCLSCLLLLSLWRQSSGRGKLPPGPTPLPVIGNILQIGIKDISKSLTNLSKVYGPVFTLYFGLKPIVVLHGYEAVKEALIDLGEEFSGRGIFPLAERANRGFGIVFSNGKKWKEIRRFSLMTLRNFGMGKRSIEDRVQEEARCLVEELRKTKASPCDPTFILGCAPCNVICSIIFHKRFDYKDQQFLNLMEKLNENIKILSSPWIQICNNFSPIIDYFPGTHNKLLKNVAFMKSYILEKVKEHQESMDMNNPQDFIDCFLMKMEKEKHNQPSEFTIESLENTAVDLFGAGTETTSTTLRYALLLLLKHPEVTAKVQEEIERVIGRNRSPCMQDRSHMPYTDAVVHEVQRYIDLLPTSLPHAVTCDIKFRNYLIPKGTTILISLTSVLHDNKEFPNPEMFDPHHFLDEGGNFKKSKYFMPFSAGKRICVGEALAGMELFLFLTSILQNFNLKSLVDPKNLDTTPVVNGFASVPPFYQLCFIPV", "test": "Cytochrome P450 Family 2 Subfamily C Member 9 (CYP2C9) small molecule antagonists: luciferase reporter qHTS assay (AID 1671198); further: nearly all actives have a fitted effect of over 50% in size", "outline": "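P450-Glo proluciferin substrate with CYP2C9 enzyme; 10 min RT preincubation, then NADPH regeneration 1 h at 37C; luciferin detection reagent 20 min RT, luminescence in relative luminescence units.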"}, "[4]": {"molecular_target": "Cytochrome P450 1A2 (Homo sapiens) (UniProt P05177)", "sequence (P05177 whole entry, looked up)": "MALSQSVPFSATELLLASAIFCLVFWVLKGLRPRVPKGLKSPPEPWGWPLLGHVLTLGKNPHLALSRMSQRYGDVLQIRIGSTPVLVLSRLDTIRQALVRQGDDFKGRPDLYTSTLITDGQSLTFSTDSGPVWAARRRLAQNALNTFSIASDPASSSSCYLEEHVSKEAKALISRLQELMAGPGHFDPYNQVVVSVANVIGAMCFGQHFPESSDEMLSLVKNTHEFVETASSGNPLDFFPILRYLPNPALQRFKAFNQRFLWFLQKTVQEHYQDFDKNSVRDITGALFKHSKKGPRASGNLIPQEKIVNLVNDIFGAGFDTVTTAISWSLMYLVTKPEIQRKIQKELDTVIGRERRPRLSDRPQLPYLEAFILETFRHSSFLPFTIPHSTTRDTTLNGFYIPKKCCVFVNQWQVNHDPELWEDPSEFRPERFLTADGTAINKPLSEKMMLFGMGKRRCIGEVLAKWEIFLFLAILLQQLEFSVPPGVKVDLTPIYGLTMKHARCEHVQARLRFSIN", "test": "Cytochrome P450 Family 1 Subfamily A Member 2 (CYP1A2) small molecule antagonists: luciferase reporter qHTS assay (AID 1671199); further: nearly all actives have a fitted effect of over 50% in size", "outline": "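Luminescence readout (relative luminescence units) after luciferin detection reagent, 20 min RT. Preceded by 1 h room-temperature CYP1A2 reaction with NADPH regeneration solution following 10 min compound preincubation with enzyme and proluciferin substrate. Furafylline positive control.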"}, "[5]": {"molecular_target": "Nuclear receptor subfamily 1 group I member 2 (Homo sapiens) (UniProt O75469)", "test": "Human pregnane X receptor (PXR) small molecule agonists, qHTS assay (AID 1346982); further: nearly all actives have a fitted effect of over 35% in size", "outline": "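HepG2 PXR-Luc reporter line, 5% charcoal-stripped FBS; 5 hr pre-incubation, compound (DMSO) 24 hr at 37 C/5% CO2; ONE-Glo 30 min RT; luminescence read-out.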"}, "[6]": {"molecular_target": "Cytochrome P450 2C19 (Homo sapiens) (UniProt P33261)", "sequence (P33261 whole entry, looked up)": "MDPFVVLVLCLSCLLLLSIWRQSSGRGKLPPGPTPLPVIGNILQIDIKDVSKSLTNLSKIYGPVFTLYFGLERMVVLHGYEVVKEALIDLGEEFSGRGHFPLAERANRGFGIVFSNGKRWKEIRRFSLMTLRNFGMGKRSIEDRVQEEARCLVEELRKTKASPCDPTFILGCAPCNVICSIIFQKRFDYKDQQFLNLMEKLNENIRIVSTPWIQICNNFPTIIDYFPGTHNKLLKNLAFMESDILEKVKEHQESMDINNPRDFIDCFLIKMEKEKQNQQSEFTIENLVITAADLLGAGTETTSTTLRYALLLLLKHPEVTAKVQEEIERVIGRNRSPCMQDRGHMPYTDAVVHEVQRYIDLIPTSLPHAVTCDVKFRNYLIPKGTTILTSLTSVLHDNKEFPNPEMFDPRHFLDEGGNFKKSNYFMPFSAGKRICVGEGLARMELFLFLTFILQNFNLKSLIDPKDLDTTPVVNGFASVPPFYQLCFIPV", "test": "Cytochrome P450 Family 2 Subfamily C Member 19 (CYP2C19) small molecule antagonists: luciferase reporter qHTS assay (AID 1671197); further: nearly all actives have a fitted effect of over 65% in size", "outline": "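Quantitative high-throughput screen of the Tox21 library using CYP2C19 with proluciferin substrate. Reaction: NADPH regeneration, 37C, 1 h, after 10 min compound preincubation at room temperature. Readout: luminescence.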"}, "[7]": {"molecular_target": "Nuclear receptor subfamily 1 group I member 2 (Homo sapiens) (UniProt O75469)", "test": "CYP3A4 induction through human pregnane X receptor (PXR) by small molecules, qHTS assay (AID 1346984); further: nearly all actives have a fitted effect of over 40% in size", "outline": "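HepG2-derived DPX-2 line carrying PXR plus a CYP3A4-promoter luciferase reporter; cells plated 5 hr, compound-exposed 24 hr at 37C. CYP3A4 activity probed with 3uM (final) Luciferin-IPA for 3hr, then luciferase read after One-Glo.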"}, "[8]": {"molecular_target": "Nuclear receptor subfamily 1 group I member 2 (Homo sapiens) (UniProt O75469)", "test": "Human pregnane X receptor (PXR) activation by small molecules, qHTS assay (AID 1346985); further: nearly all actives have a fitted effect of over 40% in size", "outline": "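DPX-2 cells (HepG2 co-transfected with a PXR response element and a CYP3A4-promoter luciferase construct) were seeded at 2,000 per well, rested 5 hr at 37C, then exposed to DMSO-dissolved compounds for 24 hr. Activation was read as luciferase luminescence.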"}, "[9]": {"molecular_target": "Cytochrome P450 3A4 (Homo sapiens) (UniProt P08684)", "sequence (P08684 whole entry, looked up)": "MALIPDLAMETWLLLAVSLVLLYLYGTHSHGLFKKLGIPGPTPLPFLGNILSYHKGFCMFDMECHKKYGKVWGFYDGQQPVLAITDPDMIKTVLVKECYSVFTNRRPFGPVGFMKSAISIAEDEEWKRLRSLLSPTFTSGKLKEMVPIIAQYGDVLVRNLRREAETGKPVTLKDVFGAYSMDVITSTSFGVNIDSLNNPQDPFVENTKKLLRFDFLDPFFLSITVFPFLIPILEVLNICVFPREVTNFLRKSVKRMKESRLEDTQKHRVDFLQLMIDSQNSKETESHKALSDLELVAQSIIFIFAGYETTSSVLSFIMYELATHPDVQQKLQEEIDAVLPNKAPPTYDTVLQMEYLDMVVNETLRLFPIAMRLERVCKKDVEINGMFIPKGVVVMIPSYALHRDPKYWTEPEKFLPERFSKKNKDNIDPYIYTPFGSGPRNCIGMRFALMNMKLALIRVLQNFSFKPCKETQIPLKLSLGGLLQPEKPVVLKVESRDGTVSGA", "test": "Cytochrome P450 Family 3 Subfamily A Member 4 (CYP3A4) small molecule antagonists: luciferase reporter qHTS assay (AID 1671201); further: nearly all actives have a fitted effect of over 50% in size", "outline": "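Room-temperature assay throughout: 10 min compound–enzyme/substrate preincubation, 1 h reaction after NADPH regeneration solution, 20 min detection. Luciferin formed from proluciferin substrate is quantified by luminescence.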"}, "[10]": {"molecular_target": "Voltage-gated inwardly rectifying potassium channel KCNH2 (Homo sapiens) (UniProt Q12809)", "sequence (Q12809 whole entry, looked up)": "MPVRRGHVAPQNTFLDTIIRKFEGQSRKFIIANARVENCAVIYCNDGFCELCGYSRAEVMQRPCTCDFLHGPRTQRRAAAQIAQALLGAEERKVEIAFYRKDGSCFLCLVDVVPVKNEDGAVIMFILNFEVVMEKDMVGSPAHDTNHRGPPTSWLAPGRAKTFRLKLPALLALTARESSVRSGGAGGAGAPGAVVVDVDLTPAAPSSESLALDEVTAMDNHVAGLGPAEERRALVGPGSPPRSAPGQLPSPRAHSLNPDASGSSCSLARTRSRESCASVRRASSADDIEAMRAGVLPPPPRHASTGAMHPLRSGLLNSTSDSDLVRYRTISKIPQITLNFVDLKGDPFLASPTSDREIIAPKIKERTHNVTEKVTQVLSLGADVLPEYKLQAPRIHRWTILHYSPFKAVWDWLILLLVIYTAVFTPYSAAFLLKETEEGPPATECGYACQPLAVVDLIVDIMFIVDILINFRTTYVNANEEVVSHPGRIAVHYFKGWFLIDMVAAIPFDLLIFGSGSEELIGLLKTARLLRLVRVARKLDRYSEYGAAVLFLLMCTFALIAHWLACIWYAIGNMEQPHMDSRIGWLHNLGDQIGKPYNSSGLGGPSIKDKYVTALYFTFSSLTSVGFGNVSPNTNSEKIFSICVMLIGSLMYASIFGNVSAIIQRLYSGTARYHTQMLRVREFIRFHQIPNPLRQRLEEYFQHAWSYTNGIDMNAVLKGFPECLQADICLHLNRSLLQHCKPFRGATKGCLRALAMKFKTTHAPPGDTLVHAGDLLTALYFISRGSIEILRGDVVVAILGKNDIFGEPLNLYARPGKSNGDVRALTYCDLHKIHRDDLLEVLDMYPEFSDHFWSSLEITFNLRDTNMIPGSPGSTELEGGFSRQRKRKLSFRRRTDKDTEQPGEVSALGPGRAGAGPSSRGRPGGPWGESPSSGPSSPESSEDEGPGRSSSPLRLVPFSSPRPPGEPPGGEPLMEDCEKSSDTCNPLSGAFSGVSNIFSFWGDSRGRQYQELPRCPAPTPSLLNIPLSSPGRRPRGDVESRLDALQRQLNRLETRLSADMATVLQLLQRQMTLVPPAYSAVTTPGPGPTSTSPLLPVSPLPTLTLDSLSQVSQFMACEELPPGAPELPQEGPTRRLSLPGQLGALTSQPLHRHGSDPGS", "test": "Human Ether-a-go-go-Related Gene (hERG) channel small molecule antagonists: fluorescence cell-based qHTS assay (AID 1671200); further: nearly all actives have a fitted effect of over 50% in size", "outline": "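Cell line hERG-U2OS; dye FluxOR II, 1 h RT dark; Tl+ stimulus; ex 480/em 540 nm, read each second for 2 min.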"}}, "note": "Values joined by “and” are separate entries in the source; they are usually repeats but may differ in a detail not shown here. Identical values can stand only once. Inconclusive results, whose numbers are uncertain, are shown with a selection of clear calls. For part of these data: Potencies of inconclusive entries are doubtful fits and often do not repeat. More than one record can exist for a structure, and the calls need not agree. Active and inactive are the calls of the source. The call rests on the fitted dose curve; in most records, active means well fitted curve in the direction sought with a large enough effect in the repeat runs; inconclusive means weak or mixed curves; inactive means no such curve, though single readings can be large; an effect the other way counts as inactive or inconclusive. Potency means the concentration at half of the fitted maximal effect; tags describe the fitted curve by direction and shape."}
{"smiles": "O=C(Cl)c1ccc([N+](=O)[O-])cc1", "values": [{"measurement": "Potency", "setting": "[1]", "result": "inconclusive: 53.5 µM [rising, partial curve, poor fit]"}, {"measurement": "Potency", "setting": "[2]", "result": "inconclusive: 35 µM [inhibitor, partial curve]"}, {"measurement": "Potency", "setting": "[3]", "result": "inactive"}, {"measurement": "Potency", "setting": "[4]", "result": "active: 55.4 µM"}]}
{"smiles": "c1ccncc1", "values": [{"measurement": "Potency", "setting": "[1]", "result": "inactive"}, {"measurement": "Potency", "setting": "[5]", "result": "inactive"}, {"measurement": "Potency", "setting": "[4]", "result": "inconclusive: 64.9 µM [inhibitor, partial curve]"}]}
{"smiles": "O=C(O)c1ccccc1Nc1cccc(C(F)(F)F)c1", "values": [{"measurement": "Potency", "setting": "[5]", "result": "active: 30.6 µM"}, {"measurement": "Potency", "setting": "[6]", "result": "inconclusive: 89.4 µM [inhibitor, single point]"}, {"measurement": "Potency", "setting": "[3]", "result": "inconclusive: 19.5 µM [inhibitor, full curve]"}, {"measurement": "Potency", "setting": "[4]", "result": "inconclusive: 38.9 µM [inhibitor, partial curve]"}]}
{"smiles": "C[Si](C)(CCCN)O[Si](C)(C)CCCN", "values": [{"measurement": "Potency", "setting": "[5]", "result": "inactive"}, {"measurement": "Potency", "setting": "[6]", "result": "active: 39.9 µM"}, {"measurement": "Potency", "setting": "[3]", "result": "inconclusive: 79.6 µM [inhibitor, partial curve, poor fit]"}]}
{"smiles": "COc1cccc(CCc2ccccc2OCC(CN(C)C)OC(=O)CCC(=O)O)c1", "note": "(stereo not given)", "values": [{"measurement": "Potency", "setting": "[5]", "result": "inactive"}, {"measurement": "Potency", "setting": "[7]", "result": "active: 12.6 µM"}, {"measurement": "Potency", "setting": "[8]", "result": "inconclusive: 25.1 µM [activator, partial curve, poor fit]"}, {"measurement": "Potency", "setting": "[4]", "result": "active: 30.9 µM"}]}
{"smiles": "CC[C@@H]1C[C@H](N(Cc2cc(C(F)(F)F)cc(C(F)(F)F)c2)C(C)=O)c2cc(C(F)(F)F)ccc2N1C(=O)OC(C)C", "values": [{"measurement": "Potency", "setting": "[5]", "result": "active: 0.77 µM"}, {"measurement": "Potency", "setting": "[6]", "result": "inactive"}, {"measurement": "Potency", "setting": "[3]", "result": "inconclusive: 3.56 µM [inhibitor, full curve, poor fit]"}, {"measurement": "Potency", "setting": "[4]", "result": "inconclusive: 39.9 µM [inhibitor, partial curve]"}, {"measurement": "Potency", "setting": "[9]", "result": "active: 894 nM"}]}
{"smiles": "NNC(=O)OCc1ccccc1", "values": [{"measurement": "Potency", "setting": "[5]", "result": "active: 54.5 µM"}, {"measurement": "Potency", "setting": "[6]", "result": "inconclusive: 79.6 µM [inhibitor, single point]"}, {"measurement": "Potency", "setting": "[4]", "result": "active: 15.9 µM"}]}
{"smiles": "O=Cc1cc(O)ccc1Br", "values": [{"measurement": "Potency", "setting": "[5]", "result": "inconclusive: 62 µM [activator]"}, {"measurement": "Potency", "setting": "[2]", "result": "inconclusive: 36.1 µM [inhibitor, partial curve, poor fit]"}]}
{"smiles": "CCc1ccc(C(=O)C(C)CN2CCCCC2)cc1", "note": "(stereo not given)", "values": [{"measurement": "Potency", "setting": "[5]", "result": "inconclusive: 29.8 µM [activator]"}, {"measurement": "Potency", "setting": "[7]", "result": "inconclusive: 28.2 µM [activator, single point]"}, {"measurement": "Potency", "setting": "[4]", "result": "inactive"}]}
{"smiles": "C[C@]12C[C@H](O)[C@H]3[C@@H](CCC4=CC(=O)CC[C@@]43C)[C@@H]1CC[C@@H]2C(=O)CO", "values": [{"measurement": "Potency", "setting": "[5]", "result": "active: 8.65 µM and active: 38.6 µM and inconclusive: 15 µM [activator, partial curve]"}]}
{"smiles": "NS(=O)(=O)O", "values": [{"measurement": "Potency", "setting": "[5]", "result": "inconclusive: 56.6 µM [activator, partial curve, poor fit]"}, {"measurement": "Potency", "setting": "[2]", "result": "inconclusive: 52.2 µM [inhibitor, partial curve, poor fit]"}, {"measurement": "Potency", "setting": "[6]", "result": "active: 73.7 µM and inconclusive: 91.2 µM [inhibitor, single point] and inactive"}, {"measurement": "Potency", "setting": "[3]", "result": "inconclusive: 73.7 µM [inhibitor, partial curve] and inactive"}, {"measurement": "Potency", "setting": "[4]", "result": "inconclusive: 73.7 µM [inhibitor]"}]}
{"smiles": "CCCC/C=C\\CCCCCCCCCC=O", "values": [{"measurement": "Potency", "setting": "[5]", "result": "inconclusive: 77 µM [activator, partial curve, poor fit]"}, {"measurement": "Potency", "setting": "[6]", "result": "inconclusive: 7.1 µM [inhibitor, full curve]"}]}
{"smiles": "ONc1ccccc1", "values": [{"measurement": "Potency", "setting": "[5]", "result": "inconclusive: 42.8 µM [activator, partial curve]"}, {"measurement": "Potency", "setting": "[2]", "result": "inactive"}, {"measurement": "Potency", "setting": "[3]", "result": "inconclusive: 44.4 µM [inhibitor, partial curve, poor fit]"}, {"measurement": "Potency", "setting": "[4]", "result": "active: 14 µM"}]}
{"smiles": "Cc1cccc(C)c1NC(=O)C(C)N", "note": "(stereo not given)", "values": [{"measurement": "Potency", "setting": "[5]", "result": "inactive"}, {"measurement": "Potency", "setting": "[2]", "result": "inactive"}, {"measurement": "Potency", "setting": "[3]", "result": "inactive"}]}
{"smiles": "CC(C)=C1CC[C@@H](C)CC1=O", "values": [{"measurement": "Potency", "setting": "[5]", "result": "inconclusive: 30.7 µM [activator, partial curve, poor fit]"}, {"measurement": "Potency", "setting": "[2]", "result": "inactive"}, {"measurement": "Potency", "setting": "[6]", "result": "inactive"}, {"measurement": "Potency", "setting": "[4]", "result": "inconclusive: 63.4 µM [inhibitor]"}]}
{"smiles": "Cc1[nH]cnc1-c1ccc(Cl)cc1", "values": [{"measurement": "Potency", "setting": "[5]", "result": "inconclusive: 23.7 µM [activator, partial curve, poor fit]"}, {"measurement": "Potency", "setting": "[6]", "result": "active: 15.5 µM"}]}
{"smiles": "O=CCCc1ccccc1", "values": [{"measurement": "Potency", "setting": "[5]", "result": "inconclusive: 48.6 µM [activator, partial curve]"}, {"measurement": "Potency", "setting": "[2]", "result": "inconclusive: 39.9 µM [inhibitor, partial curve]"}, {"measurement": "Potency", "setting": "[4]", "result": "inconclusive: 79.6 µM [inhibitor, partial curve]"}]}
{"smiles": "c1ccc2c(c1)Oc1ccccc1S2", "values": [{"measurement": "Potency", "setting": "[5]", "result": "inconclusive: 34.9 µM [activator, partial curve]"}, {"measurement": "Potency", "setting": "[2]", "result": "inconclusive: 71 µM [inhibitor, partial curve]"}, {"measurement": "Potency", "setting": "[6]", "result": "inactive and active: 71 µM"}, {"measurement": "Potency", "setting": "[3]", "result": "inconclusive: 72.1 µM [inhibitor, partial curve] and inconclusive: 39.9 µM [inhibitor, partial curve]"}, {"measurement": "Potency", "setting": "[10]", "result": "inconclusive: 15.7 µM [inhibitor, partial curve, poor fit] and inconclusive: 43.6 µM [inhibitor, partial curve]"}]}
